Publication PMC3781056, “New Pyrazolopyrimidine Inhibitors of Protein Kinase D as Potent Anticancer Agents for Prostate Cancer Cells” (PLoS ONE, 2013)
Substitutions are numbered along the chain they refer to.

Tests used:
[1] = biological target: T1, endogenous PKD1 in LNCaP prostate cancer cells (Homo sapiens, UniProt Q15139); assay: PMA-induced endogenous PKD1 activation in LNCaP cells (immunoblot); type: cell-based; conditions: PMA 10 nM 20 min
T1 construct: endogenous in cells; host or cells: LNCaP
T1 sequence (Q15139 1-912): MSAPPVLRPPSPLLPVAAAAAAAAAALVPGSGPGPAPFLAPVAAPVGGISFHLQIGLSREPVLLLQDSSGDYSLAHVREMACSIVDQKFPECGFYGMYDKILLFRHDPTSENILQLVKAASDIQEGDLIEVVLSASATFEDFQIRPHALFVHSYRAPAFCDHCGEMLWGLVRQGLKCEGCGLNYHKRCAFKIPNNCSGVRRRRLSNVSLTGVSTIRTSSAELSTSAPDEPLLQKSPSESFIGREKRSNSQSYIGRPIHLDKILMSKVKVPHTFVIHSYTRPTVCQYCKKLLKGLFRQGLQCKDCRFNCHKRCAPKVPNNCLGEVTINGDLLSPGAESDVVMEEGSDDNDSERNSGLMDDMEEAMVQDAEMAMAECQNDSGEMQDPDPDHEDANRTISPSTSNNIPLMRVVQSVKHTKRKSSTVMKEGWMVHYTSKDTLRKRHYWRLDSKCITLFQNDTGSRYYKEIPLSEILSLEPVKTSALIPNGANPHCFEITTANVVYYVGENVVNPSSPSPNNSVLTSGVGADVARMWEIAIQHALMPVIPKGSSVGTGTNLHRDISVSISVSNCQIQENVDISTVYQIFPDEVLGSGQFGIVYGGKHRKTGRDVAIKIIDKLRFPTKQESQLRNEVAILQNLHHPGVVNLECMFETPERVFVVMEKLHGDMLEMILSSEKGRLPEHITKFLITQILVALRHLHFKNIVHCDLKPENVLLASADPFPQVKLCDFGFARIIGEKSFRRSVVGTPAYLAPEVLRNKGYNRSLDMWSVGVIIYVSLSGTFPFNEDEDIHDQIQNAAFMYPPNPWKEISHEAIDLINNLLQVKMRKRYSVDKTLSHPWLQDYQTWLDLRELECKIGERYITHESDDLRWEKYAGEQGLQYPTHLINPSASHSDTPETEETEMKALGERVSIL

[2] = test system: PC3 cells; assay: Cell cycle analysis by flow cytometry; type: cell-based; conditions: 30 µM, 72 h, control 5.8%
Protocol: PKD has emerged as a promising therapeutic target for cancer. […] Cell proliferation was determined by treating the cells at 30 µM concentration of agent, and then cell number was counted for six consecutive days in the presence and absence of inhibitor.
PC3 cells were plated in triplicates in 24-well plates. Cells were allowed to attach overnight. […] Cells were counted daily for a total of 5 days. Fresh media and inhibitor were added every 2 days. The means of triplicate determinations were plotted over time. The experiment was repeated twice and results from one representative experiment are shown. […] PC3 cells were seeded into 96-well plates (3000 cells/well) and were then incubated in media containing 0.3–100 µM inhibitors for 72 h. MTT solution was added to each well and incubated for 4 h. Optical density was read at 570 nm to determine cell viability. The IC50 was determined as the mean of two independent experiments for each compound. C. […] Cell cycle distribution was determined by flow cytometry after propidium iodide labeling of fixed cells. Statistical significance was determined by unpaired t-test and is indicated. **, p<0.01; ***, p<0.001. […]
Proliferation of PC3 cells was measured by counting the number of viable cells upon trypan blue staining as previously described. […] The labeled cells were analyzed using a FACSCalibur flow cytometer (BD Biosciences).

[3] = test system: PC3 cells infected with Adv-PKD1 or Adv-PKD3; assay: Rescue of anti-proliferative effect by adenoviral PKD1/PKD3 overexpression (MTT); type: cell-based; conditions: PC3, Adv-PKD1 at 100 MOI, 10 and 30 µM, 72 h
Protocol: MTT solution was added to each well and incubated for 4 h. Optical density was read at 570 nm to determine cell viability.

[4] = test system: most native kinases, including the Src, Abl, CAMK, and CDK family of kinases, ERK1/2, and PKA; conditions: wild-type kinases; cited from earlier work
[5] = biological target: T2, Flag-PKD1^M659A (Homo sapiens, UniProt Q15139, M659A); assay: PMA-induced activation of overexpressed Flag-PKD1 mutant in cells (p-S916 immunoblot); conditions: data not shown
T2 sequence (Q15139 1-912 M659A): T1 sequence (Q15139 1-912) with M659A

Structure (SMILES): CC(C)(C)n1nc(-c2cccc3ccccc23)c2c(N)ncnc21 [Compound 1-NA-PP1, 1-(t-Butyl)-3-(naphthalen-1-yl)-1H-pyrazolo[3,4-d]pyrimidin-4-amine]
- PKC-dependent trans-phosphorylation at Ser744/748 of PKD1 [1]: unaffected
- proportion of cells in G2/M phase [2]: 28.6%
- reversal of 1-NA-PP1-induced inhibition of cell proliferation by PKD overexpression [3]: nearly complete reversal
- IC50 [4]: > 1000 nM
- inhibition of Flag-PKD1^M659A compared to wild-type Flag-PKD1 [5]: no significant difference
